Measured values from the supplement of paper PMC12067230.
This is a noisy data set.

assay: amyloid nucleation score relative to library mode (yeast Sup35 reporter selection) (log enrichment difference); higher = more amyloid nucleation; sequences are the first 22 residues of the Bri2 peptide extended by up to 12 random residues; conditions: random library (experiment): 1;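 active = nucleation score significantly above 0 at FDR 0.05; inactive = not significantly above 0 or absent from output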
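Also: [psi-pin-] Saccharomyces cerevisiae expressing SupN fusions, induced by 100 µM Cu2SO4, selected 7 d at 30 °C without adenine and uracil, scored by deep sequencing of output versus input.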

Sequence	amyloid nucleation score
EASNCFAIRHFENKFAVETLICVGRRMHSRPMYG	inactive
EASNCFAIRHFENKFAVETLICVGRVRRPMLEAC	inactive
EASNCFAIRHFENKFAVETLICVGSALLTHATLP	inactive
EASNCFAIRHFENKFAVETLICVGSCTSFAAMDT	inactive
EASNCFAIRHFENKFAVETLICVGSFGSNGHVAC	inactive
EASNCFAIRHFENKFAVETLICVGTAKMLLPRLP	0.247
EASNCFAIRHFENKFAVETLICVGTGCLSRRACE	inactive
EASNCFAIRHFENKFAVETLICVGTGRRADRVCE	-0.273
EASNCFAIRHFENKFAVETLICVGTVYQRGSDKV	7.37
EASNCFAIRHFENKFAVETLICVGVAQNSRLGDV	inactive
EASNCFAIRHFENKFAVETLICVGVLVSFTVMC	inactive
EASNCFAIRHFENKFAVETLICVGVRPDMEFNNK	3.44
EASNCFAIRHFENKFAVETLICVGVTRIKLRGNG	inactive
EASNCFAIRHFENKFAVETLICVGWDRRDRVRRR	inactive
EASNCFAIRHFENKFAVETLICVGWEGHTSRMSG	-0.324
EASNCFAIRHFENKFAVETLICVGWMRSVSWLAC	inactive
EASNCFAIRHFENKFAVETLICVGWYSRREMRKE	inactive
EASNCFAIRHFENKFAVETLICVGYAKR	inactive
EASNCFAIRHFENKFAVETLICVGYCLLRGVGQM	inactive
EASNCFAIRHFENKFAVETLICVGYGEHCRDKR	inactive
EASNCFAIRHFENKFAVETLICVGYNYRVLLWPN	inactive
EASNCFAIRHFENKFAVETLICVGYYT	inactive
EASNCFAIRHFENKFAVETLICVHAADGYRMTPM	3.19

same assay, conditions: random library (experiment): 2

Sequence	amyloid nucleation score
EASNCFAIRHFENKFAVETLICVGSECGLHLRRP	-0.174
EASNCFAIRHFENKFAVETLICVGSSTSWMQLAL	2.85
EASNCFAIRHFENKFAVETLICVGSTLVVFSFVH	3.86
EASNCFAIRHFENKFAVETLICVGTEKD	1.22
EASNCFAIRHFENKFAVETLICVGTLVIYEERKA	8.95
EASNCFAIRHFENKFAVETLICVGVLNCEDWVFF	6.92
EASNCFAIRHFENKFAVETLICVGWCDHWARVVG	inactive
EASNCFAIRHFENKFAVETLICVGWCMKVGRYGA	4.33
EASNCFAIRHFENKFAVETLICVGWISLYIMLWP	inactive
EASNCFAIRHFENKFAVETLICVGYCDSVYDAFV	inactive
EASNCFAIRHFENKFAVETLICVGYFLIFPGDIF	inactive
EASNCFAIRHFENKFAVETLICVGYVERRVYGWL	8.56
EASNCFAIRHFENKFAVETLICVH	inactive

same assay, conditions: random library (experiment): 3

Sequence	amyloid nucleation score
EASNCFAIRHFENKFAVETLICVGRLRTRRGRPE	1.32
EASNCFAIRHFENKFAVETLICVGRVGSGCWRVG	4.45
EASNCFAIRHFENKFAVETLICVGSPWTYVRSEK	4.68
EASNCFAIRHFENKFAVETLICVGSSYRVNRAYI	inactive
EASNCFAIRHFENKFAVETLICVGTDLGYDTLYS	inactive
EASNCFAIRHFENKFAVETLICVGTFCVGMWHRR	inactive
EASNCFAIRHFENKFAVETLICVGVITSVAVV	1.13
EASNCFAIRHFENKFAVETLICVGWNFSMMVDYV	2.6
EASNCFAIRHFENKFAVETLICVGWSIVACISRC	3.8
EASNCFAIRHFENKFAVETLICVGYDHRHGSGYG	inactive
EASNCFAIRHFENKFAVETLICVHAAIIITSPCD	inactive
